In PubChem BioAssay AID624170 (National Center for Advancing Translational Sciences (NCATS), 2012):
The campaign covered roughly 410,000 compounds. About 850 (0.21%) were called active. This list was built around the results that the source calls inconclusive (neither active nor inactive); the mix of calls is not that of the screen. The call rests on the fitted dose curve; in most records, active means well fitted inhibition curve with a large enough effect; inconclusive means small, poorly fitted or top-dose-only effect, or another doubt; inactive means no such curve, though single readings can be large or run the other way. No potency is given beside an inconclusive call; the fits are too rough.

Target: Glutaminase kidney isoform, mitochondrial (Homo sapiens) (UniProt O94925)
Experiment: qHTS for Inhibitors of Glutaminase (GLS)
Details: GLS enzymatic activity, qHTS titration; series mostly up to 45.5 µM
Procedure, shortened: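 Coupled fluorescence readout: glutamate oxidase/HRP/Amplex Red detect glutamate formed by hKGA from L-glutamine (1 mM solution added). Buffer 45 mM KH2PO4 pH 8.2, 0.02% Tween-20; reads at t0 and 30 min RT.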
Potency means the concentration at half of the fitted maximal effect; tags describe the fitted curve by direction and shape.

Chain of UniProt O94925 (O94925 whole entry, looked up, canonical isoform): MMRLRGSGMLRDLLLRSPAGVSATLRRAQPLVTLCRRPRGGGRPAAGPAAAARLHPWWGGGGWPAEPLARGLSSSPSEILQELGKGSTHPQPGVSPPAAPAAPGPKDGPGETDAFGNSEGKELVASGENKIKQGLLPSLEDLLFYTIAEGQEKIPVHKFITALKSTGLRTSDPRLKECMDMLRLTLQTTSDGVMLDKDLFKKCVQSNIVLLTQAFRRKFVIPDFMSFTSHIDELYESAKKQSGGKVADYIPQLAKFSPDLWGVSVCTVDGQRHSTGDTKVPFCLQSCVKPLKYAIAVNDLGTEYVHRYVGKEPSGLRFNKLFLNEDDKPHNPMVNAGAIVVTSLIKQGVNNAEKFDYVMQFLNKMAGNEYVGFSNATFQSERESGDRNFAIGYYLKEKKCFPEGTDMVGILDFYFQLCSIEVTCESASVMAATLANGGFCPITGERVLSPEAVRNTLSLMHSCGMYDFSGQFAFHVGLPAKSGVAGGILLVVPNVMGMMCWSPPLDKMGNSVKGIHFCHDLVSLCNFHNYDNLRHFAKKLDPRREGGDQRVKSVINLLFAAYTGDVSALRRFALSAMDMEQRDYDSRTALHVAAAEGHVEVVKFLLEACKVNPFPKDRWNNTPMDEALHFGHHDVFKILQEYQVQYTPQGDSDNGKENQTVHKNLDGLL

Structure (SMILES)	Potency
COc1cccc(NC(=O)c2sc3ncn(CC(=O)N4CCN(c5ccccn5)CC4)c(=O)c3c2C)c1	inconclusive [inhibitor, single point]
Nc1cc2c(cc1O)CCCC2	inconclusive [inhibitor, partial curve, poor fit]
COc1cccc(C2c3c(-c4ccccc4)n[nH]c3C(=O)N2c2ccc(C(=O)O)cc2)c1 (centres undefined)	inconclusive [inhibitor, single point]
O=C(NC(Cc1ccccc1)C(=O)O)/C(=C\c1ccc(F)cc1)NC(=O)c1ccccc1 (centres undefined)	inconclusive [inhibitor, single point]
Cc1nc(CS(=O)(=O)c2ccccc2)cc(N2CCOCC2)n1	inconclusive [inhibitor, single point]
Cc1ccc(Cl)cc1NC(=O)C1CCN(C(=O)c2cnn(-c3ccccc3)c2-n2cccc2)CC1	inactive
CC12CN(Cc3ccccc3)CC(C)(CN(Cc3ccccc3)C1)C2=NO	inconclusive [inhibitor, single point]
CCOC(=O)CSc1nnc2c3ccccc3n(C)c2n1	inconclusive [inhibitor, single point]
Cn1cnc2c(=O)oc3ccc(S(=O)(=O)N4CCN(c5ccccc5F)CC4)cc3c21	inconclusive [inhibitor, single point]
CCCCNC(=O)c1sc(=S)n2c1[nH]c(=O)c1ccccc12	inconclusive [inhibitor, single point]
CCN(CC(F)(F)C(F)F)S(=O)(=O)c1ccc(NC(=O)OC)cc1	inconclusive [inhibitor, single point]
CCOCc1nnc(NC(=O)CSc2ccccc2)s1	inactive
C#CCOCCOCCOCCNc1nc(N2CCN(C(=O)CCCCCCCCCCNC(=O)[C@H]([C@@H](C)CC)n3cc(CCCCCN)nn3)CC2)nc(N2CCN(C(=O)CCCCCCCCCCNC(=O)[C@H](CO)n3cc(CCCCCN)nn3)CC2)n1	inconclusive [inhibitor, single point]
CC1(C)CC(=O)C2=C(C1)Nc1ccccc1S2	active: 10 µM
Cn1c(=O)c2c(SC3CCCC3)nc(C3CC3)nc2n(C)c1=O	inactive
O=C(/C=C/c1ccccc1Cl)NC1CCS(=O)(=O)C1 (centres undefined)	inconclusive [inhibitor, single point]
CCN(CC)c1ccc(/C=C2/SC(=O)N(C(C)C)C2=O)o1	inconclusive [inhibitor, single point]
O=C(N/N=C/c1cc(Cl)cc([N+](=O)[O-])c1O)c1ccc2c(c1)OCO2	inactive
CC(=O)c1cccc(S(=O)(=O)NC(C)C2CC3CCC2C3)c1 (centres undefined)	inactive
CC(C)CN(C[C@@H](OP(=O)(O)O)[C@H](Cc1ccccc1)NC(=O)O[C@@H]1CCOC1)S(=O)(=O)c1ccc(N)cc1	active: 14.1 µM
CCC(C)Cn1c(O)cc2nn(-c3nc4ccccc4s3)c(=O)c-2c1C (centres undefined)	inconclusive [inhibitor, partial curve]
O=[N+]([O-])c1cc(-c2nnc(Nc3ccc(O)cc3)c3ccccc23)ccc1N1CCOCC1	inconclusive [inhibitor, single point]

Structure (SMILES)	Potency
COc1ccc(Nc2oc(-c3ccccc3F)nc2C#N)cc1	inconclusive [inhibitor, single point]
O=S(=O)(O)c1cc(O)c2cc(Nc3ccccc3)ccc2c1	inconclusive [inhibitor, single point]
O=S(=O)(/N=C(/NC(=S)Nc1ccccc1)c1ccccc1)c1ccc(Cl)cc1	inactive
O=C(O)[C@@H]1[C@H]2C[C@H]3c4[nH]c5ccccc5c4CCN3C[C@@H]2CC[C@@H]1O	inconclusive [inhibitor, single point]
Cc1cc(C)c(NC(=O)CN2C(=O)CC(C)S(=O)(=O)c3ccccc32)c(C)c1 (centres undefined)	inconclusive [inhibitor, single point]
O=C(O)CCc1ccc(S(=O)(=O)Nc2ccc(OCc3ccccc3)cc2)cc1	inconclusive [inhibitor, partial curve, poor fit]
CCc1cccc(CC)c1-n1c(SCC(=O)N2CCCc3ccccc32)nc(O)cc1=O	inconclusive [inhibitor, partial curve, poor fit]
COc1ccc(-c2csc(C(O)(c3ccccc3)C(F)(F)F)n2)cc1 (centres undefined)	inconclusive [inhibitor, single point]
COCCn1c(SCC(=O)Nc2ccc(S(=O)(=O)N(C)C)cc2)nc2ccccc21	inconclusive [inhibitor, single point]
COc1cc2c(cc1OC)CN(C(=O)c1cccc([N+](=O)[O-])c1)CC2	inconclusive [inhibitor, single point]
COCCn1c(SCC(=O)NCc2ccco2)nc2cccnc21	inconclusive [inhibitor, partial curve, poor fit]
Cc1ccc(C)c(Nc2nc3nonc3nc2Nc2cccc(C)c2C)c1	inactive
CCc1nnc(N/N=C/c2ccccc2F)n1N	inconclusive [inhibitor, single point]
COc1cc(CNc2ccc3[nH]c(=O)[nH]c3c2)cc(Br)c1OCc1ccc(F)cc1	inconclusive [inhibitor, partial curve, poor fit]
O=C(CSc1nc2c(cnn2-c2ccc(F)cc2)c(=O)[nH]1)N1CCOCC1	inactive
S=c1[nH]cc(-c2ccccc2)n1-c1ccccc1	inconclusive [inhibitor, partial curve, poor fit]
CC(C)C[C@@H](CNCC(=O)[C@H](Cc1ccccc1)NC(=O)c1[nH]cnc1C(=O)N[C@@H](C)CN)NC(=O)c1nc[nH]c1C(=O)N[C@@H](CC(=O)O)C(=O)O	inconclusive [inhibitor, single point]
Cc1cc(N2CCCC2)ccc1NC(=O)CN1C(=O)NC2(CCCCC2)C1=O	inconclusive [inhibitor, single point]
COc1ccc(/C=C/C(=O)c2ccc(NS(=O)(=O)c3ccc(C)cc3)cc2)cc1O	inconclusive [inhibitor, partial curve, poor fit]
CN1CCc2c(OCC(=O)N3N=C(c4cccs4)CC3c3ccc(F)cc3)cccc2C1=O (centres undefined)	inactive
Oc1cc(CNCc2ccccc2)c(O)cc1CNCc1ccccc1	active: 17.8 µM
O=S(=O)(c1ccccc1)N1CCNc2ccccc21	inconclusive [inhibitor, single point]

Structure (SMILES)	Potency
Cn1c2ccsc2c2ncn(Cc3ccc(F)cc3)c(=O)c21	inconclusive [inhibitor, single point]
NNC(=O)c1[nH]c2ccc(Cl)cc2c1-c1ccccc1	inactive
CC(=O)c1ccc(S(=O)(=O)NCC(=O)N2CCN(C/C=C/c3ccccc3)CC2)cc1	inactive
CCOC(=O)c1c(C)c(C(=O)NCc2ccc(Cl)cc2)c(C)n1CC	inactive
COc1ccc(NC(=O)C2CCN(C(=O)c3cccs3)CC2)c(OC)c1	inconclusive [inhibitor, single point]
O=S(=O)(c1ccc(Cl)c(C(F)(F)F)c1)N1CCN(CC(O)COc2ccccc2F)CC1 (centres undefined)	inconclusive [inhibitor, single point]
O=C(NCc1ccncc1)c1ccc(Oc2ccccc2)cc1	inconclusive [inhibitor, partial curve, poor fit]
COc1ccc(C2C3=C(CC(C)(C)CC3=O)Nc3cc4c(cc32)OCO4)cc1 (centres undefined)	inconclusive [inhibitor, partial curve, poor fit]
COc1ccc(/C=N/n2c(-c3cc(C)[nH]n3)n[nH]c2=S)cc1	inconclusive [inhibitor, single point]
O=C(NCCCN1CCCC1)c1ccc2c(Cl)c3c(nc2c1)CCCC3	inconclusive [inhibitor, partial curve, poor fit]
O/C=c1\ccc2cccc3nc(C(F)(F)F)nc1c23	inconclusive [inhibitor, partial curve, poor fit]
COc1ccc(OC)c(NC(=O)CCCc2ccccc2)c1	inactive
CC1(C)CC2(CC(c3ccc(F)cc3)c3ccc(O)cc3O2)NC(=S)N1 (centres undefined)	inactive
O=c1cc(-c2ccc(OCc3ccccc3)cc2)oc2cc(OCc3ccccc3)cc(OCc3ccccc3)c12	inconclusive [inhibitor, single point]
CC(C)CC1Nc2ccc(C(=O)NCc3ccc4c(c3)OCO4)cc2NC1=O (centres undefined)	inconclusive [inhibitor, single point]
O=C(NCc1ccco1)c1ccc(C(=O)NCc2ccco2)cc1	inactive
CN(CC(=O)Nc1c(Cl)cccc1Cl)C(=O)c1cccc(-n2cccc2)c1	inconclusive [inhibitor, single point]
O=C1c2ccccc2C(Nc2ccc3c(c2)OCO3)N1Cc1ccco1 (centres undefined)	inactive
COC(=O)c1ccc2c(=O)n(CCCCCC(=O)NCc3ccc(OC)cc3)c(=O)[nH]c2c1	inconclusive [inhibitor, partial curve, poor fit]
CN(CCOC(=O)/C=C/c1ccco1)Cc1ccccc1	inconclusive [inhibitor, partial curve]
